Among the data in PubChem BioAssay AID1963965 (Molecular Pharmacology Branch, DTP, NCI, 2024) are viability, T/C and IC50 values, retold here.

Certain results were filed several times, with different values. Only these are listed. The source may hold further records. The values listed for one entry are repeats (runs, samples, wells, individuals or studies). Marks such as (2×) give the number of equal values in this list.

In this experiment the test system is 996289-038-R-J1-PDC spheroid viability. Briefly: Anticancer human tumor 996289-038-R-J1-PDC patient-derived colon adenocarcinoma cell line growth inhibition [PI3K]. To be noted: spheroids with HUVEC and MSC; for viability, T/C: stronger effect = lower value. The text has this:
Combinatorial screen of targeted agents with the PI3K inhibitors inavolisib, alpelisib, duvelisib, and copanlisib in multi-cell type tumor spheroids
A high-throughput screen of multi-cell type tumor spheroids was designed to identify active combinations of targeted small molecules and PI3K pathway inhibitors. Complex spheroids include a stromal component modeled by human endothelial cells (HUVEC) and fibroblasts modeled by human mesenchymal stem cells (MSCs). The concentration ranges selected for each drug and investigational agent were based upon clinically achievable concentrations if the clinical Cmax of the agent was known.
Compounds. The drugs and investigational agents: inavolisib (NSC800729), alpelisib (NSC765974), duvelisib (NSC772469), copanlisib (NSC816437), ipatasertib (NSC767898), afuresertib (NSC778305), talazoparib (NSC767125), sapanisertib (NSC764658), selumetinib (NSC741078), tovorafenib (DAY101, NSC766906), vemurafenib (NSC761431), ravoxertinib (NSC781343), sotorasib (NSC818433), MRTX1133 (NSC 836407), abemaciclib (NSC 768073), palbociclib (NSC758247), venetoclax (NSC 766270), SY5609 (NSC837396), enzalutamide (NSC755605), and darolutamide (NSC825331), were obtained from the National Cancer Institute (NCI) Developmental Therapeutics Program Chemical Repository. The FDA-approved anticancer drug set is available from the NCI Developmental Therapeutics Program. […] The stock solutions were prepared in dimethyl sulfoxide (DMSO, Sigma-Aldrich, St. Louis, MO, cat. D2650) at 800-fold the tested concentration and stored at -70 degrees C prior to their use. All drugs and investigational agents were tested over a range starting from a high concentration at or near the clinical Cmax and decreasing in half-log increments. If the clinical Cmax for an agent had not been determined, the highest concentration tested was 10 microM.
Cell Culture. All cells were maintained in an incubator at 37 degrees C and 5% CO2 with 95% humidity. The PDC lines were cultured according to standard operating procedures established by the NCI PDMR (https://pdmr.cancer.gov/sops/default.htm). All PDCs were thawed and cultured in Matrigel-coated flasks prepared with a working solution of 1X Ham's F-12 nutrient mix, without supplementation (Invitrogen, Waltham, MA, cat. 11765054), 100 U/mL penicillin-streptomycin (Invitrogen, cat. 15140122), and 2.5% Matrigel (Corning Inc., Corning, NY, cat. 354248) for the first three passages. The 354836-022-R-J1-PDC, 475296-252-R-J1-PDC, and 997726-040-R-J2-PDC lines were cultured in 6A media, which includes advanced DMEM/F-12 (Thermo Fisher Scientific, cat. 12634028), 10 mM HEPES (Thermo Fisher Scientific, cat. 15630080), 1X GlutaMAX supplement (Thermo Fisher Scientific, cat. 35050061), 0.1 mg/mL primocin (InvivoGen, San Diego, CA, cat. ant-pm-2), 10% defined fetal bovine serum, heat inactivated (HyClone Laboratories Inc., Logan, UT, cat. SH30070.03HI), 50% L-WRN conditioned media (ATCC, cat. CRL-3276), 1.25 mM N-Acetyl-L-cysteine (Sigma-Aldrich, cat. A9165), 10 mM nicotinamide (Sigma-Aldrich, cat. N0636), 1X B-27 supplement (Thermo Fisher Scientific, cat. 17504044), 1X N-2 supplement (Thermo Fisher Scientific, cat. 17502048), and 10 microM Y-27632 dihydrochloride (Tocris Bioscience, Bristol, United Kingdom, cat. 1254). The 624824-186-R-J2-PDC line was cultured in 6C/Colon 1B media, which includes all 6A media components plus 50 ng/mL human EGF recombinant protein (Thermo Fisher Scientific, cat. PHG0311). […]
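Further: spheroids exposed to compounds for seven days before viability read.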
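Wherever viability, T/C is given: luminescence used as a proxy for viable cell amount; percent viability relative to DMSO vehicle control as 100%.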

By viability, T/C is commonly meant the result in the treated group divided by that in the control group, in per cent. In the case of `C=CC(=O)N1CCN(c2nc(=O)n(-c3c(C)ccnc3C(C)C)c3nc(-c4c(O)cccc4F)c(F)cc23)C(C)C1` (stereo unspecified), where the note is “compound alone 0.316 µM”, the viability, T/C was 99, 117, 98, 125%.
Consider `CC(=O)c1c(C)c2cnc(Nc3ccc(N4CCNCC4)cn3)nc2n(C2CCCC2)c1=O`, for which, under “compound alone 0.00316 µM”, the viability, T/C is given as 114, 109, 95.5, 88.8%.
For the compound `Cn1ncnc1[C@H]1c2n[nH]c(=O)c3cc(F)cc(c23)N[C@@H]1c1ccc(F)cc1`, for the setting “compound alone 0.000316 µM”, the viability, T/C is listed as 107, 90.6, 91.4, 123%.
With `CC1(C)CCC(CN2CCN(c3ccc(C(=O)NS(=O)(=O)c4ccc(NCC5CCOCC5)c([N+](=O)[O-])c4)c(Oc4cnc5[nH]ccc5c4)c3)CC2)=C(c2ccc(Cl)cc2)C1`, the viability, T/C (compound alone 0.0316 µM) is 85.5, 92.9, 109, 113%.
For `CC(Nc1ncnc2nc[nH]c12)c1cc2cccc(Cl)c2c(=O)n1-c1ccccc1` (stereo unspecified), the viability, T/C (compound alone 1 µM) is reported as 99.4, 107, 91.2, 86.7, 100, 96.1, 80.6, 96.4%.
In the case of `CC1(C)CCC(Nc2ncc(C(F)(F)F)c(-c3c[nH]c4c(P(C)(C)=O)c(C#N)ccc34)n2)CN1` (stereo unspecified), the viability, T/C (compound alone 0.0316 µM) is reported as 108, 106, 90.7, 116%.
The term IC50 denotes the concentration that gives 50% inhibition. Take `Cc1nc(NC(=O)N2CCCC2C(N)=O)sc1-c1ccnc(C(C)(C)C(F)(F)F)c1` (stereo unspecified): where the note is “compound alone, run of 06/12/2023”, the half-inhibitory concentration (IC50) is > 10 µM, 6.9 µM, 6.8 µM, 6.38 µM.
As to `CC(Nc1ccc2c(c1)OCCn1cc(N3C(=O)OCC3C(F)F)nc1-2)C(N)=O` (stereo unspecified), the viability, T/C (compound alone 0.01 µM) is 97.1, 96.6, 112, 102 (2×), 106 (2×), 83.6%.
Turning to `CNC(=O)c1ccc(N2C(=S)N(c3ccc(C#N)c(C(F)(F)F)c3)C(=O)C2(C)C)cc1F`, the viability, T/C is 95.1, 83.7, 111, 107% (compound alone 3.16 µM) and 97.5, 87.1, 125, 93% (compound alone 10 µM).
For the compound `C[C@@H](NC(=O)c1ncnc(N)c1Cl)c1ncc(C(=O)Nc2cc(C(F)(F)F)c(Cl)cn2)s1`, under “compound alone 3.16 µM”, the viability, T/C is recorded as 111, 105, 154, 112%.
